# Data reported in PubChem BioAssay AID504332 (National Center for Advancing Translational Sciences (NCATS), 2011).
# Screen size: about 350,000 compounds; about 31,000 (8.9%) were called active. This list was built around the results that the source calls inconclusive (neither active nor inactive); the mix of calls is not that of the screen. Calls come from the whole dose curve; as a rule, active = well fitted inhibition curve with a large enough effect; inconclusive = small, poorly fitted or top-dose-only effect; inactive = no such curve, though single readings can be large or run the other way. Where the call is inconclusive, the potency comes from a doubtful curve fit.
# Target: Histone-lysine N-methyltransferase EHMT2 (Homo sapiens) (UniProt Q96KQ7)
# Chain of UniProt Q96KQ7 (Q96KQ7 whole entry, looked up): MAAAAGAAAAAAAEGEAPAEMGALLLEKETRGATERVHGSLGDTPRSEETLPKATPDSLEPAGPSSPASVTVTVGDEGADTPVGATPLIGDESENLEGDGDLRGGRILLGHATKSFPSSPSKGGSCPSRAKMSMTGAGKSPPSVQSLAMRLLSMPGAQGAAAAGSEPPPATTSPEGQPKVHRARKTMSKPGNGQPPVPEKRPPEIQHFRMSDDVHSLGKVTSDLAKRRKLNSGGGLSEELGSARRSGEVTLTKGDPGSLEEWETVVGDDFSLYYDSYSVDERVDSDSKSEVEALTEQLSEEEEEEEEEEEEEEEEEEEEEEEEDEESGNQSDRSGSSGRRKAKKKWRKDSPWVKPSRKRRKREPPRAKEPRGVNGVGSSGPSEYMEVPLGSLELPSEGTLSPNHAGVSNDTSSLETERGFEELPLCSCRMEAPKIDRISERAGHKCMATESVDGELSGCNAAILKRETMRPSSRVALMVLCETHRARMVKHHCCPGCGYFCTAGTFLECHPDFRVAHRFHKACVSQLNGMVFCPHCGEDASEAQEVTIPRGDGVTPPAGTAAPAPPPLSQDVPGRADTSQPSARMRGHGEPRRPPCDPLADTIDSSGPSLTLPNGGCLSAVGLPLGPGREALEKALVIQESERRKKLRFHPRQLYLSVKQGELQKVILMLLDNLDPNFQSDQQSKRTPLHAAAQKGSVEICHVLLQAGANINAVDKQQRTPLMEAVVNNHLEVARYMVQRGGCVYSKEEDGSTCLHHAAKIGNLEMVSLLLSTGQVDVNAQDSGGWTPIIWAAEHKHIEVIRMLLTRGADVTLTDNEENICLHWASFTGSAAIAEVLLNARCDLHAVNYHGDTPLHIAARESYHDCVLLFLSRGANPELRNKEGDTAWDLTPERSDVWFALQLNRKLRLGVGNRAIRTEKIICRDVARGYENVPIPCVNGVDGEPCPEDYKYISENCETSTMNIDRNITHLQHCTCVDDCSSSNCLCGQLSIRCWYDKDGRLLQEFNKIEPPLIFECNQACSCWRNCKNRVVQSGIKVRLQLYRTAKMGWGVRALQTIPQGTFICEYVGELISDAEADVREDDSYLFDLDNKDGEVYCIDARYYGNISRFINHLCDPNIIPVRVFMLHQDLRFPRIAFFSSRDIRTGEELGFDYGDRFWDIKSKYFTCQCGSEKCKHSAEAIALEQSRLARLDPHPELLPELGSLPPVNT
# Experiment: qHTS Assay for Inhibitors of Histone Lysine Methyltransferase G9a; note: nearly all actives have a fitted effect of over 75% in size
# Conditions: G9a H3K9 monomethylation, AlphaScreen, 2 h; activity, negative = inhibition: at 59 µM (top of the series) unless noted
# Outline: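 Enzyme 20 nM + cpd, 15 min RT; add b-H3K9 pep 500 nM / SAM 20 uM; 2 h RT; anti-H3K9me1 Ab 0.5 ug/mL + SA donor / anti-rabbit acceptor beads 20 ug/mL each, 10 min; AlphaScreen read.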
# % is set by controls: 0 for no effect and ±100 for the full control effect; potency is the fitted concentration of half-maximal effect; tags give direction and shape of the fitted curve.
SMILES,Potency,"activity, negative = inhibition"
COc1ccc(-c2cc(C(=O)Nc3c(C)n(C)n(-c4ccccc4)c3=O)c3ccccc3n2)c(OC)c1,"inconclusive: 89.1 µM [inhibitor, single point]",
COc1cc(CN2CCCN(C)CC2)c([N+](=O)[O-])cc1OC,"inconclusive: 11.2 µM [inhibitor, partial curve, poor fit]",
CCCCn1c(N)c(N(CCC(C)C)C(=O)C2CC(=O)N(Cc3ccc(C)cc3)C2)c(=O)[nH]c1=O (stereo unspecified),"inconclusive: 17.8 µM [inhibitor, partial curve, poor fit]",
Cc1ccc(SCCN2CCC(O)CCC2=O)cc1 (stereo unspecified),inactive,
O=C(Cc1cn2ccsc2n1)Nc1nc2c(s1)CCCC2,inactive,
O=C(Nc1cccc2ncccc12)c1ccc(-c2ccc(Br)cc2)o1,"inconclusive: 44.7 µM [inhibitor, partial curve]",
O=C(Nc1cccnc1)c1ccc(NS(=O)(=O)c2cc([N+](=O)[O-])ccc2Cl)cc1,active: 50.1 µM,
Cc1ccc(CCNC(=O)c2cc(C)nc3c2c(C)nn3-c2ccc(C)cc2)cc1,inactive,
CC(=O)N1CCc2cc(S(=O)(=O)CCC(=O)Nc3ccc(Cl)cc3F)ccc21,active: 70.8 µM,
N[C@H](CC(=O)O)C(=O)O,inactive,
CCN(CC)C(=O)c1ccc(S(=O)(=O)NCc2cccnc2)cc1,active: 79.4 µM,
O=S(=O)(NC1CCCC1)c1ccc(Br)s1,"inconclusive: 0.794 µM [inhibitor, full curve]",
CC(C)c1ccc(NC(=O)CCS(=O)(=O)c2cccc3nonc23)cc1,inactive,
CCc1ccc(-c2nn(CC(=O)NCc3ccccc3)c3c2cnc2ccc(C)cc23)cc1,inactive,
COc1ccc2[nH]c(C)c(CCNC(=S)Nc3ccccc3C)c2c1,active: 50.1 µM,
Cc1cc(C)n(CC(=O)N/N=C/c2c[nH]c3ccccc23)n1,"inconclusive: 50.1 µM [inhibitor, partial curve]",
CN1C(=O)/C(=C/c2cccc(Cl)c2)Sc2ccc(C(=O)N3CCCC3)cc21,"inconclusive: 89.1 µM [inhibitor, single point]",
Cc1c(C(=O)N2CCCC2)sc(NC(=O)c2cccs2)c1C#N,,inactive: 11.4% [at 12.7 µM]
Cc1ncoc1C(=O)NC1CC(C)(C)Cc2c1cnn2-c1ccccc1 (stereo unspecified),"inconclusive: 39.8 µM [inhibitor, partial curve, poor fit]",
COC(=O)c1ccc(Cn2c(SCc3ccccc3)nc3ccncc32)cc1,inactive,
Cc1ccc(NC(=S)NCC(C)C)cc1,inactive,
COc1ccc(S(=O)(=O)N2CCC(C(=O)NCc3ccco3)CC2)cc1C,"inconclusive: 7.94 µM [inhibitor, partial curve, poor fit]",
CCOc1ccc(/C=C2\SC(=S)N(NS(=O)(=O)c3ccc(C)cc3)C2=O)cc1OC,"inconclusive: 31.6 µM [inhibitor, partial curve, poor fit]",
CCc1c(C)c2ccc(O)c(CN3CCN(c4ccc(OC)cc4)CC3)c2oc1=O,inactive,

SMILES,Potency,"activity, negative = inhibition"
Cc1ccccc1[C@@H]1C(C#N)=C(N)S[C@H]1C(=O)c1ccccc1,"inconclusive: 79.4 µM [inhibitor, single point]",
O=C(C1=C[C@@H](c2ccc(Br)cc2)C[C@@H](OCCCCO)O1)N1CCN(Cc2ccc3c(c2)OCO3)CC1,,inconclusive: -58.2% [inhibitor]
O=C(CN1CCC(C(=O)c2ccc(F)cc2)CC1)Nc1ccccc1,"inconclusive: 25.1 µM [inhibitor, partial curve, poor fit]",
CNNC(=S)Nc1ccc(Cl)cc1,"inconclusive: 50.1 µM [inhibitor, partial curve]",
COc1ccccc1NC(=O)CSc1nnc(Cc2cccn2C)n1CCc1ccccc1,"inconclusive: 39.8 µM [inhibitor, single point]",
CCN(CC)C(=O)c1cccc(NC(=O)c2cc(C3CC3)nc3c2cnn3C(C)C)c1,"inconclusive: 1.78 µM [inhibitor, partial curve, poor fit]",
CCN1C(=O)/C(=C\c2ccc3c(c2)OCO3)C(C(=O)OC)=C1C,active: 50.1 µM,
CCCCNC(=O)COC(=O)c1c2c(nc3ccccc13)CCC2,"inconclusive: 79.4 µM [inhibitor, single point]",
COc1cccc(NC(=O)CN(C)C(=O)CCSc2ccc(C)cc2)c1,"inconclusive: 8.91 µM [inhibitor, single point]",
CC(=O)Nc1ccc(NC(=O)c2cc3sccc3n2Cc2ccc(Cl)cc2)cc1,inactive,
CN(C)S(=O)(=O)c1cccc(NC(=S)NC2CCCCC2)c1,"inconclusive: 79.4 µM [inhibitor, single point]",
Cc1ccc(NC(=O)CN2CCCN(S(=O)(=O)c3ccc(Br)s3)CC2)cc1,active: 50.1 µM,
O=C1NCCCC1C(=O)N1CCN(C(=O)C2CCCNC2=O)CC1 (stereo unspecified),"inconclusive: 89.1 µM [inhibitor, single point]",
COc1ccc(NC2c3ncccc3C(=O)N2Cc2ccccc2)c(OC)c1 (stereo unspecified),active: 12.6 µM,
OCCN(CCO)c1ncnc2c1oc1ccc(Br)cc12,"inconclusive: 63.1 µM [inhibitor, partial curve, poor fit]",
O=C(NCC(c1ccco1)N1CCc2ccccc2C1)c1ccc(F)cc1 (stereo unspecified),"inconclusive: 50.1 µM [inhibitor, partial curve, poor fit]",
Cc1cc(C)nc(SCCC(=O)Nc2ccccc2)n1,"inconclusive: 79.4 µM [inhibitor, single point]",
COc1cccc(CN(C)C(=O)CNC(=O)c2ccc3c(c2)OCO3)c1OC,"inconclusive: 7.08 µM [inhibitor, partial curve, poor fit]",
O=C1CC(Sc2ccc(Cl)cc2)C(=O)N1c1ccc2c(c1)OCCO2 (stereo unspecified),"inconclusive: 7.94 µM [inhibitor, full curve]",
O=C(O)CCCNC(=O)/C(=C\c1ccc(Cl)cc1)NC(=O)c1ccc(Br)cc1,"inconclusive: 44.7 µM [inhibitor, partial curve, poor fit]",
CCOc1ccccc1NC(=O)c1c(NCc2cccs2)sc2c1CCCCC2,"inconclusive: 10 µM [inhibitor, partial curve]",
CCC1C(=O)NCCN1Cc1nc(-c2ccc(C)s2)oc1C (stereo unspecified),inactive,
Clc1ccc(/C=N/Nc2nn[nH]n2)cc1,active: 10 µM,
CCCCn1c(O)c(N=Nc2ccccn2)c2ccccc21,inactive,

SMILES,Potency,"activity, negative = inhibition"
COC(=O)Cn1c(=O)c2c(nc(Br)n2Cc2ccccc2Cl)n(C)c1=O,"inconclusive: 89.1 µM [inhibitor, single point]",
CCn1c(C)c(C)c2cc(C(=O)NCc3ccc(OC)cc3OC)ccc21,"inconclusive: 39.8 µM [inhibitor, single point]",
O=S(=O)(NCC(c1cccnc1)N1CCN(Cc2ccccc2)CC1)c1cc(F)ccc1F (stereo unspecified),"inconclusive: 63.1 µM [inhibitor, single point]",
C#CCn1cnc2c(cnn2-c2ccc(F)cc2)c1=O,inactive,
C=CCNC(=O)/C(C#N)=C/c1c(N(Cc2ccccc2)Cc2ccccc2)nc2ccccn2c1=O,"inconclusive: 39.8 µM [inhibitor, single point]",
Cc1cc(C)nc(N2CCC(C(=O)Nc3ccc4c(c3)CCC4)CC2)n1,"inconclusive: 31.6 µM [inhibitor, partial curve, poor fit]",
COc1ccc(C(=O)NC(=S)Nc2ccccc2N2CCN(S(C)(=O)=O)CC2)cc1OC,"inconclusive: 44.7 µM [inhibitor, partial curve, poor fit]",
c1coc(-c2nn3c(Cn4nnc5ccccc54)nnc3s2)c1,,inconclusive: -118% [inhibitor]
N#Cc1ccccc1CN1C(=O)NC2(CCCCCC2)C1=O,inactive,
CN(C)S(=O)(=O)c1cccc(N=C2NN=C(c3ccccc3)CS2)c1,active: 35.5 µM,
C=CCNC(=O)/C(C#N)=C/c1ccccc1[N+](=O)[O-],"inconclusive: 20 µM [inhibitor, single point]",
CC(=O)NC12CC3CC(C1)CC(C(=O)OCC(=O)Nc1ncc(Cl)c(C)c1Cl)(C3)C2,"inconclusive: 89.1 µM [inhibitor, single point]",
CCCc1nnc(NC(=O)c2oc3ccccc3c2COCC)s1,"inconclusive: 89.1 µM [inhibitor, single point]",
CCNc1cc(Cl)nc(SC)n1,inactive,
O=C1C2=C(CCCC2)C(=O)N1c1cccc(OCCBr)c1,active: 39.8 µM,
CC(C)(C)c1ccc(C2=NC(C)(C)N(CC(=O)Nc3ccc(F)c(F)c3)C2=O)cc1,inactive,
COc1ccc(N(CC(=O)Nc2ccccc2F)S(=O)(=O)c2ccc(C)c([N+](=O)[O-])c2)cc1,,inconclusive: -61.2% [inhibitor]
Fc1ccccc1-c1nc2ccccc2[nH]1,,inactive: 4.13% [at 0.501 µM]
Cc1cc(/C=C2/NC(=S)NC2=O)c(C)n1-c1cccnc1,"inconclusive: 39.8 µM [inhibitor, partial curve, poor fit]",
CC(C)OCCCNC(=O)C(NS(=O)(=O)c1ccc2c(c1)c(=O)n(C)c(=O)n2C)c1ccccc1 (stereo unspecified),active: 14.1 µM,
Cc1ccc2[nH]c(=O)c(Cc3ccccc3)c(O)c2c1,active: 8.91 µM,
CN1CCN(/N=C/c2nc(-c3cccc([N+](=O)[O-])c3)n3ccccc23)CC1,"inconclusive: 25.1 µM [inhibitor, single point]",
O=C(CN1CCN(c2ccc(F)cc2)CC1)Nc1cccc(C(F)(F)F)c1,active: 50.1 µM,
